The target in this experiment is T1, MBP-ROCK2 (full-length ROCK2 with N-terminal MBP tag) (human, UniProt O75116 1-1388).
T1 construct: human ROCK2, residues 1-1388 (synthetic gene), in vector pONE30A; also called MBP-ROCK2 fusion protein; fusion variant; not shown: MBP, N-terminal, kept
Kind of experiment: SAXS; MBP-ROCK2 with 1.5× molar excess of GppNHp-bound RhoA; 25 mM HEPES pH 7.4, 25 °C; Rg and molecular mass from Guinier analysis. Conditions: both partners purified.

T1 sequence (O75116 whole entry, the tested form may be a part): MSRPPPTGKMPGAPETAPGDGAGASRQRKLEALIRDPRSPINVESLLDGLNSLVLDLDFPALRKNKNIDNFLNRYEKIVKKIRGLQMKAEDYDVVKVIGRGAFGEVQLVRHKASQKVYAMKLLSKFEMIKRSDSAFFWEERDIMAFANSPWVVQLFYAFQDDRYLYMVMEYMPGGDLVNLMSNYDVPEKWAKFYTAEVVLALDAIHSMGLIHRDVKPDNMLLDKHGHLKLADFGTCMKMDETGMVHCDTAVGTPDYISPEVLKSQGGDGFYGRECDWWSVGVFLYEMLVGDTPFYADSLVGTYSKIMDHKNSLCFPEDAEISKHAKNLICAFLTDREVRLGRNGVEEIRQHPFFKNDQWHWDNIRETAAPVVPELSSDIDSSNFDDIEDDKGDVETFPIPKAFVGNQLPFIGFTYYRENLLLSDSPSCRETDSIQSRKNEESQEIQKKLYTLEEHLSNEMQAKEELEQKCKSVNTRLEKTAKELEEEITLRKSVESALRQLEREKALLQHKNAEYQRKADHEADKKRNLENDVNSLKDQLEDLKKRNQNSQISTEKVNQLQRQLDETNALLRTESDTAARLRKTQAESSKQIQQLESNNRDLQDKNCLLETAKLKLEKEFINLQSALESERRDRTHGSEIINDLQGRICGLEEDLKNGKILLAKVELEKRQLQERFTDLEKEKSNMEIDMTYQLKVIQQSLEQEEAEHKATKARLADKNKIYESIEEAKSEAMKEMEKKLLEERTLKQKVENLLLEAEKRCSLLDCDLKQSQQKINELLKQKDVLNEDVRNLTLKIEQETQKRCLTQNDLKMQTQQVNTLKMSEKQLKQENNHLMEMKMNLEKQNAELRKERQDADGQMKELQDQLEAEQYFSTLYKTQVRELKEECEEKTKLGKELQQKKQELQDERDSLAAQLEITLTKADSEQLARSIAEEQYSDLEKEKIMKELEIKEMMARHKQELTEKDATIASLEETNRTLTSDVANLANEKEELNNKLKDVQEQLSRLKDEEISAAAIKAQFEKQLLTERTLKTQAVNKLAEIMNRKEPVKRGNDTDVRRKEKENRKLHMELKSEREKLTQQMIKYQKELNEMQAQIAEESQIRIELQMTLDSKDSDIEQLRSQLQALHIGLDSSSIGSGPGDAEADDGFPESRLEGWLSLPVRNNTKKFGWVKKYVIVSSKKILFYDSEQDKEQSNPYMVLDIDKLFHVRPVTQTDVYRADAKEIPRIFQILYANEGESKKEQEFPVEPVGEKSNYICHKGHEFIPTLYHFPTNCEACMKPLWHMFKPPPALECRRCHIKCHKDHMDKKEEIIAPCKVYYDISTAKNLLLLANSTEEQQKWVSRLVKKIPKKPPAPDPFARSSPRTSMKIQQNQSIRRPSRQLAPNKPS

B1: RhoA ([…]), His-tagged (domain or fragment)
chain: not shown
notes: human RhoA, […] (synthetic gene), in vector pONE10K; Loaded with BODIPY-GTP in the size exclusion experiment and with GppNHp in SAXS and the activity assays; also called RhoA(GppNHp); not shown: His6, C-terminal, kept
As for B1, the binding result is given as “binds”.
